# In the supplement of paper PMC11417369:
# Some of the results follow.
# System: PfAP2-HC AP2 domain (GST-tagged)
# Experiment: gcPBM binding intensity (ln(normalized median fluorescence intensity)); higher = stronger DNA binding
# Outline: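 The binding buffer was 1× PBS containing 1% milk, 0.2 mg/ml BSA, 0.5% salmon testes DNA and 0.03% Triton X-100. In it, GST-tagged P. falciparum DNA-binding domains expressed in E. coli were applied for 1 h to an Agilent 4 × 180k array of primer-extended double-stranded 36-bp intergenic genomic probes plus negative controls. Binding intensity, read with Alexa488 anti-GST antibody and a 488 nm scan, is the highest Masliner-normalised natural-log median intensity across replicate spots of either probe orientation.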
row,Sequence,gcPBM binding intensity (ln)
1,GGATGATTAAGGGGGACACACGTTTATATATTTATA [CACACA_site4342],9.91
2,TTTATATTTCTCTTTAGTACATATTATATTCTTTTA [XGTACX_site1618],9.72
3,AATGAAAATAAATTAACACACAATTTTAATATTGTT [CACACA_site1306],9.62
4,TGATAGCTAGCTATATGTACATATATATATATATAT [XGTACX_site393],9.54
5,CTTTCGGTTGGAGAGGTGCGCTTCTCCTTTATAATA,9.61
6,TACACAAAATTTAAATGTACATTAAATATATGATGT [XGTACX_site2140],9.56
7,AAACATCATAAATATACACACATATATATATATATA [CACACA_site620],9.67
8,ATTTATCTATAATATACACACATATAACAGACATAT [CACACA_site6469],9.87
9,AAAACGTATCACAAAAGTACAGATAGTTATAATATA [XGTACX_site185],9.77
10,CGAAACCATATGTACACACACATATATAAATATGTA [CACACA_site7082],9.95
11,ATATATCAACTCATATTATTTTCTTTTATTATTTAT [CACACA_negctrl_site276],9.75
12,GTATACTTAACATTCACACATATATATATATATAAA [CACACA_site4596],9.63
13,AATTATTTACCTTCTTTGAAAGAACAAATGATACAA [CACACA_negctrl_site1315],9.48
14,ATATATATATATATATGTACTTATAATTCTTCAATT [XGTACX_site5627],9.47
15,ATTTATAATCTGTATAGTACACATATATACATGGTT [XGTACX_site2714],9.78
16,CTAAAACAATAAATCACACATACATAGGATAATATA [CACACA_site4247],9.81
17,TCTTAAATATACAGTTGTACTAAACAAAAAAAAAAA [XGTACX_site2639],9.65
18,TATAAAAAATGATAAAGTACTTTATACACACAAATA [XGTACX_site8486],9.83
19,AAAATATACACACATATGTATATAATATTATATGTA [GTGCAC_negctrl_site496],9.96
20,ATGTAGATATATATCTGTACGTATATGTAAATATTA [XGTACX_site1516],9.84
21,ACACATTATAACAAGGTGCAATTTTTATACACATGT [GTGCAC_site9866],10.2
22,TATATAAAACCTTATTGTACTATTAGACTATGCTTA [XGTACX_site6026],9.51
23,CAAATATCTATTTAGTGTACTAATATATTCAATAAT [XGTACX_site2345],9.45
24,ACAAAGACAATTTTGTTATATATAAAAAAAAAAAAT [CACACA_negctrl_site253],9.58
25,ATTAATTTTCCATTCACACATATATATATATATATA [CACACA_site6065],9.75
